From article PMC4336329 (PLoS ONE, 2015)
The whole screen tested about 310,000 compounds, of which about 2,200 (0.71%) showed an effect of 50% or more. Effects have a minus sign here. The list shows a part of the results.

The compounds below were run against human ether-à-go-go-related gene (hERG) potassium channel (human, UniProt Q12809) (assay: primary screen, population patch clamp on CHO cells stably expressing hERG).
human ether-à-go-go-related gene (hERG) potassium channel, sequence (Q12809 whole entry, looked up): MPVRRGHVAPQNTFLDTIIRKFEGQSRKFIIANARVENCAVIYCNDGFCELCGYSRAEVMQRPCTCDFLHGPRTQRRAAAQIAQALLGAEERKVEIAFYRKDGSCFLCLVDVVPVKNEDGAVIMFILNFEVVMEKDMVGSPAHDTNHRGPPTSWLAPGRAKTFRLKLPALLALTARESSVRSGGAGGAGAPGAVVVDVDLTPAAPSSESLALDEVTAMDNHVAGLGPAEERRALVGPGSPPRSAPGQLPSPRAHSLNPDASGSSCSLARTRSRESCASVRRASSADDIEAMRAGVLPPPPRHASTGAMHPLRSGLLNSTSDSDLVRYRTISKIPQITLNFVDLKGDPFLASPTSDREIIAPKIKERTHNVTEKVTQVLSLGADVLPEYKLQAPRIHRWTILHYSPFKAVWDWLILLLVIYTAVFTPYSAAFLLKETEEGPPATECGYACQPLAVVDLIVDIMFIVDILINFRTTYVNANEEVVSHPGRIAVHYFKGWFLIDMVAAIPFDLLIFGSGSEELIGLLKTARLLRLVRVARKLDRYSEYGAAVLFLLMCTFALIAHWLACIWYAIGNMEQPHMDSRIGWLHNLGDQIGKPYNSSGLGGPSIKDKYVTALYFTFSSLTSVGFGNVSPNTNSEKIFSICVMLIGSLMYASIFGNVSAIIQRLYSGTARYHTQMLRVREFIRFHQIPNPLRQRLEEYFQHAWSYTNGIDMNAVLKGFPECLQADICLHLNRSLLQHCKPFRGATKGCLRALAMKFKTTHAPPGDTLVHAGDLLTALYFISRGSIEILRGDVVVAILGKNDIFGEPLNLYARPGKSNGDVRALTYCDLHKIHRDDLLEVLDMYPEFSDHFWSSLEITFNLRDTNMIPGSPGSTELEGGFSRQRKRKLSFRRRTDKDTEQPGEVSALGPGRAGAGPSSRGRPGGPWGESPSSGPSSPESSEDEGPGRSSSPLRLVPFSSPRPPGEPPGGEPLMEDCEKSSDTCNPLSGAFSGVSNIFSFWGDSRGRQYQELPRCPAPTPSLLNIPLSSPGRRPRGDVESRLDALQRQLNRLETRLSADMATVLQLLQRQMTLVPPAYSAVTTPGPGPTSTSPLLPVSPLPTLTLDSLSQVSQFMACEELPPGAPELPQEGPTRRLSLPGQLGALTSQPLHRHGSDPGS

Point of comparison: `Cc1ccc(-c2nn(-c3ccccc3)cc2/C=C/C(=O)OCC(=O)NC2CC2)o1`, “hERG current change (%, negative = inhibition) at 1uM” value 7.49%. Against it:
- COc1ccccc1C(=O)NC1CCN(C(=O)Nc2ccc(C)cc2)CC1 — higher, 10.5%
- CC1CCN(CCOc2ccc(Cl)c(Cl)c2)CC1 — lower, -15.5%
- CC(C)n1c(NCc2ccc(Cl)cc2)nc2ccccc21 — higher, 7.69%
- CCC(C)NC(=O)C1c2ccccc2C(=O)N1Cc1ccccc1 (centres unmarked) — higher, 14.5%
- CC1(c2nnc(Cc3ccccc3)o2)CC(c2cccc(F)c2)=NO1 (centres unmarked) — lower, 5.1%
- COc1cccc(N/C(SCc2cccc([N+](=O)[O-])c2)=C(/C#N)C(=O)NCc2cccs2)c1 — higher, 7.73%
- Cc1ccc(NC2CC(=O)N(c3ccc(C)cc3)C2=O)cc1 (centres unmarked) — lower, 5.32%
- CC1CCC2(CC1)NC(=O)N(CC(=O)NC1(C#N)CCCCC1)C2=O (centres unmarked) — higher, 14.6%
- CCCc1noc2c1C(c1ccoc1)C(C#N)=C(N)N2 (centres unmarked) — lower, 5.56%
- CCCOC1CCCN(Cc2cn(C)nc2-c2ccccc2F)C1 (centres unmarked) — higher, 13.2%
- COc1ccc(N2CC(O)(c3ccc(C)cc3)[N+]3=C2CCCC3)cc1.[Br-] (centres unmarked) — lower, 3.52%
- O=C1NC(=O)C(CCc2ccncc2)(Cc2ccc([N+](=O)[O-])cc2)C(=O)N1 — higher, 15%
- Nc1nc(-c2ccccc2)nn1S(=O)(=O)c1ccccc1 — higher, 7.67%
- S=c1[nH]nc(CSCCOc2ccccc2)o1 — higher, 8.97%
- O=C(COc1ccccc1)Nc1ccc(CSc2ccccc2)cc1 — higher, 12.7%
- O=C(NC(C(=O)N/N=C/c1ccncc1)c1n[nH]c(=O)c2ccccc12)c1ccccc1 (centres unmarked) — higher, 9.33%
- COc1ccc(S(=O)(=O)c2nnn(-c3cccc(OC)c3)c2N)cc1 — lower, 6.81%
- Cc1cc(=O)cc(C)n1-c1ccc(Cl)c(Cl)c1 — higher, 11.1%
- O=C(COC(=O)CCOc1ccccc1)Nc1ncc(Cl)cc1Cl — lower, 7.19%
- O=C1N=C(N2CCCC2)S/C1=C\C=C\c1ccccc1 — lower, -0.905%
- Cc1ccc(S(=O)(=O)n2cnc3cc([N+](=O)[O-])ccc32)c(C)c1 — lower, -12.3%
- Cc1ccc(CN2CCN(CC3CC4C=CC3C4)CC2)cc1 (centres unmarked) — lower, -22.4%
- O=C(COC(=O)c1cncc(Br)c1)NCc1ccco1 — lower, 5.14%
- COc1ccc(OCC(=O)NCc2n[nH]c(=O)c3ccccc23)cc1 — lower, -1.83%
- Cc1cc(C)cc(N2CN=c3s/c(=C\c4ccco4)c(=O)n3C2)c1 — higher, 7.62%
- CC(=O)NNc1nc(-c2ccccc2)c2cc(Br)ccc2n1 — higher, 17.6%
- COc1cccc(CC(=O)Nc2ncc(C)s2)c1 — higher, 12%
- CC(=O)NC(CCS(C)(=O)=O)C(=O)Nc1ccc(Oc2ccccc2)cc1 (centres unmarked) — higher, 12%
- O=C(NCc1cc([N+](=O)[O-])ccc1O)c1cccc(NS(=O)(=O)c2ccccc2)c1 — higher, 18.5%
- Cc1ccc(OCCNC(=O)c2ccccc2F)cc1 — lower, 5.76%
- Cc1cccc(-c2ncc(CN3CCN(CC(C)C)C(CCO)C3)cn2)c1 (centres unmarked) — lower, -19.3%
- CCC(=O)Nc1ccc2c(c1)nc(CCN1CCN(C)CC1)n2C — higher, 20.6%
- Cc1ccccc1CN1C[C@@H]2C[C@@H](c3cn(C)nc3-c3ccccc3)N3CCC[C@@]23C1=O — higher, 16.8%
- O=C(c1ccccc1F)N1CCN(CC2CC3C=CC2C3)CC1 (centres unmarked) — lower, -13%
- CCN1CCN(Cc2ccc(OCc3ccccc3)cc2)CC1 — lower, 6.55%
- Cc1ccc(S(=O)(=O)N2CCOCC2)cc1NC(=O)COC(=O)c1cc(=O)[nH]c2ccccc12 — lower, 1.29%
- Cc1cc(C)c(-c2csc(NC(=O)C3=COCCO3)n2)cc1C — higher, 20.9%
- CC1=C(C(=O)O)N2C(=O)[C@@H](NC(=O)CCCC(=O)O)[C@H]2SC1 — higher, 10.1%
- Cc1cc(Cl)ccc1Nc1ncccc1C(N)=O — higher, 11.9%
- N#Cc1ccncc1S(=O)c1ccc(Cl)cc1 (centres unmarked) — higher, 13%
- CCOC(=O)N1CCC(NC(=O)CCN2C(=O)C3C4C=CC(C4)C3C2=O)CC1 (centres unmarked) — lower, 5.49%
- [O-]/[N+](=C/c1cccnc1)c1ccc(Br)cc1 — higher, 9.2%
- O=C(Cc1ccccc1)NCC(=O)N1CCCCC1 — higher, 19.6%
